# Measurements reported in the supplement of paper PMC11417369.
# ± gives the standard deviation of the averaged measurements. The list shows a part of the results.
# Test system: PfAP2-G AP2 domain (GST-tagged)
# Assay: gcPBM binding intensity (ln(normalized median fluorescence intensity)); higher = stronger DNA binding
# How it was run: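 GST-fused DNA-binding domains of P. falciparum, expressed in E. coli, were applied at about 25 μg on average for 1 h to an Agilent 4 × 180k array of primer-extended double-stranded 36-bp intergenic genomic probes and negative controls. Binding intensity is the highest Masliner-normalised natural-log median intensity across replicate spots of either probe orientation, measured with Alexa488 anti-GST antibody and a 488 nm scan.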
row,Sequence,gcPBM binding intensity (ln)
1,AAAAAAAAAAAAAGTACACACATACCTATAAATATA [CACACA_site6937],11.5 ± 0.96
2,TTTACCTCTTCAATGGTGCAATAACTCAAAAATTTG,10.2 ± 0.27
3,TTTTTATTTTATTAGTGTACTTTATATTTAACAATA [XGTACX_site1175],11.5 ± 1
4,ATAAATAAAATAAAAGCACACAAAATGTAAATAATT [CACACA_site8895],10.04 ± 0.057
5,TATTTCTGATTACATACACACATATACAGATATGAC [CACACA_site7490],10.1 ± 0.099
6,TATATACCTATATACACACACATATATAAATAAATA [CACACA_site7341],9.78 ± 0.12
7,AACAAATACAAAGAATAGTCATCTGAATGGTGTTAT [GTGCAC_negctrl_site685],9.87 ± 0.16
8,TTATATATAATATATACACACACATGTATATATAAA [CACACA_site8603],9.885 ± 0.078
9,TATGTTCCATTTTTTGGTACACATACAATAACTGCT [XGTACX_site2256],11.3 ± 0.82
10,ATTACATACGAGCACACGTAAAAGTATAATATAAAA [GTGCAC_negctrl_site446],10.3 ± 0.31
11,TTTGTATTGTGCAGATGTACATTATAATATTGGATT [XGTACX_site5033],11.1 ± 0.72
12,ATTAATATGAAACGATTATAAGAAAGAAAAGAAATG [GTGCAC_negctrl_site701],9.9 ± 0.099
13,TACATATACAGACACACACACACACCCCCACAAAAA [CACACA_site495],11.3 ± 0.82
14,AAATTGAATTAGTTAACACACAACTTTTATTTCATA [CACACA_site2840],9.71 ± 0.16
15,CATATACATATATGTAGTACGTGTTCTTCTATATGA [XGTACX_site8344],11.3 ± 0.72
16,AGCATCATTTTACACACATGCAAATGTAAAATAGGA [TGCATGCA_site460],9.94 ± 0.057
17,AAATTAATAAGTCACACACACATATATAATATATAT [CACACA_site799],10.05 ± 0.085
18,AATATATACATTTATATACACACCTATATATATATA [CACACA_site1972],10.2 ± 0.24
19,GTTATATGTTATATATATATATATATATATATATAT [TGCATGCA_negctrl_site428],9.81 ± 0.15
20,ATAAAGATTAATTCAAGTACACATCAAATACTACAA [XGTACX_site8794],11.4 ± 0.82
21,TATATATATTTATGTACACACATCAATCATATTAAC [CACACA_site5127],11.4 ± 0.92
22,AAAAATAATGCACATATATATAATATGTATATGTAT [CACACA_negctrl_site443],9.92 ± 0.028

row,Sequence,gcPBM binding intensity (ln)
1,CATGTATTTTATATTACACACTAATATTATATATAT [CACACA_site1508],9.94 ± 0.16
2,GAATGTATAAAATGAACACACGCCAAATTAAATGAA [CACACA_site3044],9.99 ± 0.028
3,TTTTAAACAAGACACACACACATATATATATATATA [CACACA_site925],10.3 ± 0.47
4,TTATTGTAAATATATGCATGTGCAAAATGAAAAAAA [TGCATGCA_site399],9.98 ± 0.014
5,ATGTTTACATATTAGGGTACATAATAAATTGCATAT [XGTACX_site6712],11.2 ± 0.72
6,TAGAGTATATATAAATGTACATATTTTATGCTAATT [XGTACX_site7821],11.2 ± 0.73
7,AATAAACAAATATGTACACACATATACCTATAAATA [CACACA_site7358],11.4 ± 1
8,CCAACATATATTATCACACACATATATATATATATA [CACACA_site2016],10.2 ± 0.48
9,ATATTAGATTAATTTACACACAGAAAATGAGATTTT [CACACA_site541],9.705 ± 0.078
10,AAAAAATTAAATAATTACAAAAAAATAAAATAAAAA [GTGCAC_negctrl_site638],9.44 ± 0.14
11,ATAATGATTATAATATGTACATAAATATATATATTA [XGTACX_site5029],11.2 ± 0.64
12,CGGATCTATAAGTGTACACAATCTAGCGAAAAGTTT [CACACA_site4932],11.6 ± 1
13,AATTTGAAATAAAGTAGTACAGTATATAAAAATATA [XGTACX_site128],11.8 ± 1.1
14,TTAGAAATTCATTTTACACACAATTCAAAAGAATGT [CACACA_site2104],9.81 ± 0.014
15,AAAAAATCAAAACACACACACACACCCAAAAAAAAA [CACACA_site1444],10.4 ± 0.23
16,AAACAATACATATATTGTACATATATTATATTATAT [XGTACX_site8136],10.8 ± 0.55
17,ATAAAATAAAAAAGTAGTACACACTTCACGATATTT [XGTACX_site8289],11.5 ± 0.84
18,ATTATGTTATATATATGTACATATATAATGTTCATA [XGTACX_site6184],11.1 ± 0.69
19,AATAAATAAACAAATTAACACACAGAATTTTTTTTT [CACACA_site8485],9.68 ± 0.21
20,ATAATTATAAAATAAACACACATATATATTTATATG [CACACA_site440],9.98 ± 0.16
21,TTTTAGAGTGATATATATTAACTTTTAATAAAAAAA [CACACA_negctrl_site611],9.9 ± 0.25
22,AAAATATAAGCCACTACACACATATATAAATGTATA [CACACA_site2639],10.1 ± 0.23

row,Sequence,gcPBM binding intensity (ln)
1,TTTTTTTAAATTATATGTACATAATTTTAATTTTAT [XGTACX_site5086],11.3 ± 0.81
2,TTGATATCTTTTTTTTGTACATATATTTATAAGTAA [XGTACX_site3538],11 ± 0.54
3,GTTATACACATATATACACACATATGTAGATATATA [CACACA_site7529],10.04 ± 0.078
4,TATAATATTCCTTTTTAACACACATATGAACAAATA [CACACA_site7932],10.1 ± 0.18
5,ATAAATAAATAAATACGTACATATATATATATATAT [XGTACX_site8838],11.5 ± 0.93
6,TAAAGTACAGGAGTAAATTGAAAAAAAAAAAAAAAA [CACACA_negctrl_site1410],10.9 ± 1
7,ATACATATATTTTTATGTACATATATTTTTTTTGTA [XGTACX_site4546],11.3 ± 0.73
8,ATATGTTAAAAATTCACACAAAAAAGTATACAGATA [CACACA_site4179],10.3 ± 0.19
9,TATGAATGCTTTTATGCACACGTACAAAAATATTAT [CACACA_site8851],11.4 ± 0.77
10,AACACTCAAAAAAATTTAAATAAAAAAAAAAAAAAA [CACACA_negctrl_site680],9.51 ± 0.29
11,ATGATTTTTTTTATTTTTTAGCTAGAGCTAGCTTAT [CACACA_negctrl_site433],9.66 ± 0.042
12,TATGGAAGAAAATATACACACAAAAAAAAAAAATGG [CACACA_site4924],10.23 ± 0.092
13,ACATGTTTCATATGTTGTACTAACTTAAATATAAAT [XGTACX_site6412],11.2 ± 0.72
14,TTACCTATTCTAAAATGTACACATTATATATGTGCT [XGTACX_site5776],11.3 ± 0.64
15,TGTATATTTGTTGTTACACACATATATTTTTTTTTT [CACACA_site128],9.895 ± 0.049
16,TTGTACATCTTTTGCACACGTAATGTTATTAAAATA [CACACA_site4827],11.3 ± 1
17,TTAACTATAATAAAATGTACATATGTAACATATATA [XGTACX_site7790],11 ± 0.51
18,TTATAACAAAAAATTAAAGAAAGAGAATAAGTGAAA [CACACA_negctrl_site975],10.02 ± 0.057
19,AGGTCCTACACCAATAAATATCATATATATATTATA [CACACA_negctrl_site568],10.1 ± 0.27
20,GGTTAGACGAAATATACATGCAATGGAAAATAAGTT [TGCATGCA_site23],10.12 ± 0.014
21,ATATTAATTTCTCATGCATGTTCTTCCCAATTGTAA [TGCATGCA_site425],10 ± 0.057
22,CTTTTTGAAATATTAACACACATTTTGTTAATGAAT [CACACA_site6087],9.845 ± 0.021

row,Sequence,gcPBM binding intensity (ln)
1,TATAAGTAGATAAGGGTGCACAATATAAATATATAG,10.7 ± 0.73
2,TCATCATGTATGTACACACATACATATATTATGTAC [CACACA_site1386],11.7 ± 0.8
3,TCCTTAATTCAAAAAATAATATCTTATATTTCAAAT [CACACA_negctrl_site1592],9.84 ± 0.45
4,CACAAGAAAATTCACACACACACATATATATATATA [CACACA_site3880],10.1 ± 0.3
5,GGAATAAAGACAGCACGTACATATCTTACGAAGCTC [XGTACX_site3918],11.4 ± 1
6,ATATTTATATTTTCATGTACGTATTTTTATATATAT [XGTACX_site8478],11.6 ± 0.96
7,TATTTTTTTTGTCATATATAAGAAACGCTCTTCTTT [TGCATGCA_negctrl_site127],9.895 ± 0.007
8,AAATAAAAGATATTTTTACACACTTTTGATGAGATC [CACACA_site9000],9.915 ± 0.021
9,TGAAATAAAATTTGTACACACATATTTATTTATATA [CACACA_site6421],11.2 ± 0.97
10,TGCATTATATTAAATTTTTTATTTGTTGATGTTATA [GTGCAC_negctrl_site371],9.64 ± 0.11
11,TTGTATTTATTTATGGGAGGATTATAATCATTGTAG [GTGCAC_negctrl_site268],10.01 ± 0.035
12,TAATTCACATTTTATACACACATTCGAACCTTTTTT [CACACA_site3341],9.94 ± 0.14
13,ATATATATACATATAACACACACATATATATATATA [CACACA_site8827],10.2 ± 0.61
14,TATAGTCAACTAGTCACACATATAATTATATATATA [CACACA_site5872],10.1 ± 0.22
15,TATAAAGAAATCATTACACACAAATAAATACATACA [CACACA_site2675],10 ± 0.13
16,ATTTTTATTAGTTATTGTACTTATTATTTATTAATT [XGTACX_site2568],11.4 ± 0.89
17,TATAGATATATACGGTGTACATACATAAAAAAAAAA [XGTACX_site1648],11.4 ± 0.91
18,CATGACATAAAAAATATACACACTATAATATATATA [CACACA_site1402],9.94 ± 0.28
19,GTAAGAATATTTATAAATGTATAATTTGTATTATTT [GTGCAC_negctrl_site667],9.8 ± 0.042
20,TAAAATATCATAGATAGTACATATAACGTTTTATAT [XGTACX_site5666],10.7 ± 0.42
21,ATCGAAATTTTAGAATATATATGATGTTACTTAAGT [GTGCAC_negctrl_site611],9.75 ± 0.23
22,AGTTAATTAATAGGCACACATATATATGTATAAATA [CACACA_site523],10.355 ± 0.007
